Reference: PubChem BioAssay AID1346428 (National Center for Advancing Translational Sciences (NCATS), 2018)
Where “and” joins values, the source holds several entries; their conditions need not be identical. Equal entries are not always repeated. In all, about 48,000 compounds went through this assay and about 1,200 (2.5%) were called active. Another 2% or so got no clear call; they are omitted.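 The calls were made as follows: active = activation of at least 60% and not above a set upper limit (about 1 call in 100 departs from these limits); inconclusive = activation of 40% to 60%, or above that upper limit; inactive = activation under 40%.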 Some of the results follow.

molecular target: Probable G-protein coupled receptor 32 (Homo sapiens) (UniProt O75388); assay: qHTS for Agonists of Human Resolvin D1 Receptor DRV1; conditions: CHO-K1 GPR32 beta-arrestin PathHunter luminescence, 90 min; at 76.9 µM; stronger effect = higher value; zero percent set by DMSO-only wells; also: 0% is about no effect
In short: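 GPR32 activation in stably transfected CHO-K1 cells, detected as beta-arrestin recruitment by enzyme-fragment complementation. Compound exposure: 90 min, 37 °C.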

UniProt O75388, sequence (O75388 whole entry, looked up, the tested form may be a part): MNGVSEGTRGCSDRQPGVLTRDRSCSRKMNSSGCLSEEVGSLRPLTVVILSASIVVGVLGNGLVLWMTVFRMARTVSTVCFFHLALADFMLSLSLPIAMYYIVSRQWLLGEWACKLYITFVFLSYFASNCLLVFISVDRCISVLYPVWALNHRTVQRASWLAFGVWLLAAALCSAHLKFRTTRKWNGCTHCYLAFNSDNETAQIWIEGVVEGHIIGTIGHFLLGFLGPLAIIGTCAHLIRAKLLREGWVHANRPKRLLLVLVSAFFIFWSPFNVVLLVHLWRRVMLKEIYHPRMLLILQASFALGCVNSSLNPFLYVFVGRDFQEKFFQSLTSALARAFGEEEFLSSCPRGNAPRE

| Compound | activation |
| --- | --- |
| COc1ccc(Cl)cc1NC(=O)CN1C(=O)CN=C(c2ccccc2)c2cc(Cl)ccc21 | inactive: -11.9% |
| CC[n+]1c(-c2ccccc2)c2cc(N)ccc2c2ccc(N)cc21 | inactive: -43.8% |
| Cc1ccc(-n2c(/C=C/c3ccc(Br)s3)nc3ccccc3c2=O)cc1 | inactive: 14.9% |
| Oc1ccc2c3c1O[C@H]1c4oc5ccccc5c4C[C@@]4(O)C(C2)N(CC2CC2)CCC314 (stereo not given in full) | inactive: -24.1% |
| CCCCC1C(=O)NC(=O)N(C2CCCCC2)C1=O (stereo not given) | inactive: -6.02% |
| Clc1cccc(SC2CCNCC2)n1 | inactive: -12.7% |
| CCOC(=O)c1ncn2c1CN(C)C(=O)c1c(I)cccc1-2 | inactive: 0.99% |
| O=C(O)Cc1ccccc1 | inactive: 0.0463% |
| CN1C(=O)[C@@H](NC(=O)c2cc3ccccc3[nH]2)N=C(c2ccccc2)c2ccccc21 | inactive: -0.368% |
| c1cc2c(c(N3CCNCC3)c1)OCCO2 | inactive: -8.94% |
| CCS(=O)(=O)C(C)(C)S(=O)(=O)CC | inactive: -13.3% |
| CN(C)CCc1c[nH]c2cccc(OP(=O)(O)O)c12 | inactive: 26.8% |
| Cc1cccc(NC(=O)Cn2cc(C(=O)c3ccccc3)c3ccccc32)c1 | inactive: -17.4% |
| O=c1[nH]c2cc(Cl)ccc2n1C1CCNCC1 | inactive: -3.9% |
| O=c1c2ccccc2nc(/C=C\c2ccc(F)cc2)n1-c1ccccc1F | inactive: -7.28% |
| c1ccc(CCCN2CCN(CCOC(c3ccccc3)c3ccccc3)CC2)cc1 | inactive: -20% |
| CC(=O)NS(=O)(=O)c1ccc(NC(=O)c2cccn(Cc3ccc(Cl)cc3)c2=O)cc1 | inactive: -8.74% |
| COc1ccc(OCC(=O)N2CCN(Cc3cc(=O)n4nc(-c5ccccc5C)sc4n3)CC2)cc1 | inactive: 36.2% |
| CCCn1c(C)c(C(=O)c2ccc3ccccc3c2)c2ccccc21 | inactive: -23% |
| O=C(CCc1nc(C2=CCN(Cc3cccc(Cl)c3)CC2)no1)Nc1ccccc1F | active: 69.9% |
| C[C@]12CCC(=O)C=C1CC[C@@H]1[C@@H]2CC[C@@]2(C)[C@H]1CC[C@]2(C)O | inactive: -11.5% |
| CC(C)NCC(O)c1ccc(N)c(C#N)c1 (stereo not given) | inactive: -15% |
| CNCC(O)c1ccc(O)cc1 (stereo not given) | inactive: 4.09% and inactive: -3.25% |

| Compound | activation |
| --- | --- |
| CC(Cc1ccccc1)NCCCCl (stereo not given) | inactive: -55.4% |
| O=C(COc1ccccc1Cl)N1CCN(CCc2ccncc2)CC1 | inactive: -9.53% |
| C#CCOC(=O)C1=CCCN(C)C1 | inactive: 9.09% |
| O=C(Cc1ccc(Cl)c(Cl)c1)N1CCCCC1CN1CCCC1 (stereo not given) | inactive: -7.18% |
| O=C(COc1cccc(Cl)c1)N1CCN(CCc2ccncc2)CC1 | inactive: -9.08% |
| CCCN(CCC)c1c([N+](=O)[O-])cc(S(N)(=O)=O)cc1[N+](=O)[O-] | inactive: -76.5% |
| Cc1ccc(Cn2cccc(C(=O)Nc3cc([N+](=O)[O-])ccc3C)c2=O)cc1 | inactive: -6.28% |
| O=S1(=O)N(Cc2ccccc2)CCCN1Cc1cccc(Cl)c1 | inactive: 15.7% |
| COCC(=O)N(c1c(C)cccc1C)C(C)C(=O)OC (stereo not given) | inactive: 8.47% |
| Cc1ccc(-c2nc(CN3C(=O)CN=C(c4ccccc4)c4cc(Cl)ccc43)c(C)o2)cc1 | inactive: -36.5% |
| Cc1cc(NC(=O)c2cccn(Cc3cccc(Cl)c3)c2=O)no1 | inactive: -0.151% |
| O=C(O)CCCOc1ccc(Cl)cc1Cl | inactive: 19.9% |
| NCC(CP(=O)(O)O)c1ccc(Cl)cc1 (stereo not given) | inactive: 0.222% |
| Cc1cccc(-n2c(/C=C/c3cn(C)c4ccccc34)nc3ccccc3c2=O)c1 | inactive: -20.3% |
| c1ccc(C2CC2)c(OCC2=NCCN2)c1 | inactive: 3.66% and inactive: -0.357% |
| O=C(Nc1ccon1)c1cccn(Cc2ccccc2)c1=O | inactive: 27.8% |
| CC[C@H]1C[C@@H]2C[C@H]3c4[nH]c5ccc(OC)cc5c4CCN(C2)[C@@H]13 | inactive: -23.1% |
| C[C@]12CCC(=O)C(O)=C1CC[C@@H]1[C@@H]2CC[C@]2(C)C(=O)CC[C@@H]12 | inactive: 10.9% and inactive: 4.65% |
| COc1ccc(/C=C/c2nc3ccccc3c(=O)n2-c2ccc(C)cc2)cc1O | inactive: -16.7% |
| OC(O)C(Cl)(Cl)Cl | inactive: -8.84% |
| CNC(C)(C)Cc1ccccc1 | inactive: 2.44% |
| CCOP(=S)(OCC)Oc1cc(C)nc(C(C)C)n1 | inactive: 6.58% |
